Results reported in PubChem BioAssay AID1768 (National Center for Advancing Translational Sciences (NCATS), 2009).
Where “and” joins values, the source holds several entries; their conditions need not be identical. Equal entries are not always repeated. In all, about 270,000 compounds went through this assay and about 620 (0.23%) were called active. Inconclusive means that the source gave no clear call. Such entries were picked first, then a sample of the others. Calls follow the shape of the dose curve; as a rule, active = well fitted inhibition curve with a large enough effect in the polarisation, with a control signal flat (not every such curve was filed as active); inconclusive = small, poorly fitted or top-dose-only effect, or effect the other way, or a change in a side signal; inactive = no such curve, though single readings can be large or run the other way; the % refers to the polarisation. Where the call is inconclusive, the potency comes from a doubtful curve fit. “Side channel” marks fits to a control or component signal instead of the main read-out.

molecular target: Menin (Homo sapiens) (UniProt O00255); test: qHTS Assay for Inhibitors Targeting the Menin-MLL Interaction in MLL Related Leukemias: Competition With Texas Red Labeled MLL-derived Mutant Peptide; details: fluorescence polarization; FP activity change, negative = inhibition: at 61.6 µM (top of the series); as to FP activity change, negative = inhibition: % of control where 0% means no effect
Potency is read from the fitted curve at half-maximal effect; tags tell the direction and shape of the fitted curve or compound fluorescence and quenching.

Chain of UniProt O00255 (O00255 whole entry, looked up): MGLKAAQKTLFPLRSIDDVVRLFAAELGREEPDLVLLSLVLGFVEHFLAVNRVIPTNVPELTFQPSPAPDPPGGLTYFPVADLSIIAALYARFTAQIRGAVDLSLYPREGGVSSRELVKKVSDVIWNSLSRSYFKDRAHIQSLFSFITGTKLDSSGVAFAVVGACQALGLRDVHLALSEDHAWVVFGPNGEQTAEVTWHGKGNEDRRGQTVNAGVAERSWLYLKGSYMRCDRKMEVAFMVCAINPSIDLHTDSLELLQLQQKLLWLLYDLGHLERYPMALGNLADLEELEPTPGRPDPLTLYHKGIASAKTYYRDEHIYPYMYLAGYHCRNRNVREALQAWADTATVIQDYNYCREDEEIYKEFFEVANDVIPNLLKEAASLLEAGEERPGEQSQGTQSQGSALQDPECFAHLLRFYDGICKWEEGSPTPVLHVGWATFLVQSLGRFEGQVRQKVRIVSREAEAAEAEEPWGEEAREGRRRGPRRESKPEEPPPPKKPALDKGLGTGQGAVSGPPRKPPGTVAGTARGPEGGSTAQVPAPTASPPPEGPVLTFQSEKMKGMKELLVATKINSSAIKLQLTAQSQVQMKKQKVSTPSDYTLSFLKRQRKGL

SMILES | Potency | FP activity change, negative = inhibition
O=C(Cn1cnc2cc([N+](=O)[O-])ccc2c1=O)NCCc1ccc(F)cc1 | inconclusive: 31.6 µM [quencher, side channel, single point] | 
CC(=O)Oc1ccc(C(=O)Nc2ccc(S(=O)(=O)N3CCOCC3)cc2)cc1 | inconclusive: 28.2 µM [quencher, side channel, single point] | 
Cc1ccc2nc(NC(=O)CCNS(=O)(=O)c3ccc(Br)s3)sc2c1 | inconclusive: 17.8 µM [quencher, side channel, partial curve] | 
O=C(Nc1cccc(NC(=O)c2ccccc2[N+](=O)[O-])c1)c1ccccc1Cl | inconclusive: 25.1 µM [quencher, side channel, partial curve] | 
Cc1ccc(C2=NN(S(=O)(=O)c3ccccc3)C(c3ccccc3O)C2)cc1 (stereo not given) | inconclusive: 35.5 µM [fluorescent, single point] | 
Cc1cccc(NC(=O)CN2C(=O)S/C(=C\C(=O)Nc3ccc(Cl)cc3)C2=O)c1 | inconclusive: 3.55 µM [quencher, full curve] | 
COCCn1c(C(=O)N2CCCC2)cc2c1C[C@H]1CN(C(=O)c3ccccc3)[C@@](Cc3ccc(F)cc3)(C(=O)OC)[C@@H]21 | inconclusive: 2.82 µM [fluorescent, side channel, full curve, poor fit] | 
CCCCc1c(C)nn(-c2nnc3c4ccccc4n(CC)c3n2)c1C | inconclusive: 5.01 µM [fluorescent, side channel, partial curve] | 
CC(=O)CSc1nc2cc3c(cc2cc1C#N)OCCO3 | inconclusive: 5.01 µM [quencher, side channel, full curve] | 
CCc1nc(N)nc(N)c1-c1ccc(Cl)cc1 | inconclusive: 14.1 µM [inhibitor, partial curve] | 
O=C(N/N=C1/CC(c2ccccc2)Oc2ccccc21)C1CC1 (stereo not given) | inconclusive: 22.4 µM [inhibitor, single point] | 
O=C1c2ccccc2C2=Nc3ccccc3SC(c3cccc(F)c3)C12 (stereo not given) | inconclusive: 12.6 µM [quencher, side channel, partial curve] | 
O=C1N/C(=N/NC(=O)c2cccc3ccccc23)S/C1=C\c1ccccc1OCc1ccccc1 | inconclusive: 14.1 µM [quencher, side channel, partial curve] | 
O=C(Nc1ccc(Br)cc1)C1Cc2ccccc2O/C1=N\O (stereo not given) | inconclusive: 39.8 µM [fluorescent, side channel, single point] | 
CCCCS(=O)(=O)N1C2=NC(C(=O)OC)=C(C(=O)OC)[C@@H]3N(C)c4ccccc4[C@]23C[C@H]1C(=O)OC |  | inactive: -1.75% [at 11.7 µM]
OCCC1CN(Cc2cccc(C(F)(F)F)c2)CCN1Cc1ccccc1 (stereo not given) | inconclusive: 28.2 µM [fluorescent, side channel, single point] | 
CC1=C2C(=CO[C@H](C)[C@H]2C)C(=O)C(C(=O)O)=C1O | inactive | 
N[C@H](CSSC[C@@H](N)C(=O)O)C(=O)O | inactive | 
COc1ccc(CN2CCN(c3ncccn3)CC2)c(C)c1C | inconclusive: 14.1 µM [inhibitor, partial curve] | 
COc1ccccc1NC(=S)N(Cc1ccco1)Cc1cc2cc(C)ccc2[nH]c1=O | inactive | 
COCCN(C(=O)c1csnn1)C(C(=O)NC1CCCCC1)c1ccc(C)cc1 (stereo not given) | inconclusive: 25.1 µM [fluorescent, side channel, partial curve] | 
CCn1c(C)cc(/C=C2\NC(=O)N(Cc3ccc(Cl)cc3)C2=O)c1C | inconclusive: 31.6 µM [quencher, side channel, single point] | 
CCOC(=O)C1(Cc2cccc(OC)c2)CCN(Cc2ccc(OC)c(OC)c2)CC1 | inconclusive: 25.1 µM [fluorescent, side channel, partial curve] | 
O=C(COc1nc2ccccc2nc1N1CCOCC1)Nc1ccc(S(=O)(=O)N2CCCC2)cc1 | inconclusive: 17.8 µM [fluorescent, side channel, partial curve, poor fit] | 
COc1cccc(CNc2ccc([N+](=O)[O-])cc2C)c1 | inconclusive: 7.94 µM [quencher, side channel, partial curve, poor fit] | 
Cc1ccc(NC(=S)N(Cc2cccs2)Cc2cc3cc(C)ccc3[nH]c2=O)cc1 | inconclusive: 28.2 µM [inhibitor, single point] | 
COC(=O)c1cc(S(=O)(=O)N2CCN(c3cccc(Cl)c3)CC2)c[nH]1 | inconclusive: 39.8 µM [fluorescent, single point] | 
COc1cc(NC(=O)CN2C(=O)COc3ccc(S(=O)(=O)N4CCCC4)cc32)cc(OC)c1 | inactive | 

SMILES | Potency | FP activity change, negative = inhibition
CC(=O)OC[C@@H]1O[C@H](CCO/N=C(\C)CCN2CCCc3nc(C)c(C)cc32)C=C[C@@H]1OC(C)=O | inconclusive: 6.31 µM [inhibitor, single point] | 
O=S(=O)(CCc1nc2ccccc2o1)c1ccc(Cl)c(Cl)c1 | inconclusive: 35.5 µM [fluorescent, side channel, single point] | 
COc1cc(/C=C/C(=O)Nc2nc3ccc(S(=O)(=O)N(C)C)cc3s2)cc(OC)c1OC | inconclusive: 12.6 µM [quencher, side channel, partial curve] | 
CC(C)CC(=O)NC(Nc1ccc([N+](=O)[O-])cc1)C(Cl)(Cl)Cl (stereo not given) | inconclusive: 17.8 µM [quencher, side channel, partial curve] | 
CN1CCN(CCCNC(=O)c2ccc(/C=C3\Oc4ccccc4N(Cc4ccc(Cl)cc4)C3=O)cc2)CC1 | inconclusive: 2.51 µM [inhibitor, full curve, poor fit] | 
C1CCC(C(CC2CCCCN2)C2CCCCC2)CC1 (stereo not given) | inconclusive: 6.31 µM [fluorescent, side channel, full curve] and inconclusive: 8.91 µM [fluorescent, side channel, full curve] | 
O=C(O)/C=C\C(=O)Nc1ccc(N2CCN(c3ccc(Cl)cc3)CC2)cc1 | inconclusive: 31.6 µM [quencher, side channel, single point] | 
COc1ccc(S(=O)(=O)NCc2ccc(C(=O)N3CCN(c4ccccn4)CC3)cc2)cc1 | inconclusive: 22.4 µM [inhibitor, single point] | 
O=C(CSc1n[nH]c(-c2ccccn2)n1)Nc1ccc(Cl)cc1 | inconclusive: 14.1 µM [quencher, side channel, partial curve] | 
Cc1cccc(N=C2NN=C(c3c[nH]c4ccccc34)CS2)c1 | inconclusive: 2.82 µM [quencher, side channel, full curve] | 
COC(=O)[C@@]1(Cc2ccc(OC)cc2)[C@H]2c3cc(C(=O)N(C)C)n(Cc4ccc(C(F)(F)F)nc4)c3C[C@H]2CN1C(=O)c1ccccc1 | inactive | 
COc1ccc(N2CC(C(=O)Nc3nc4ccc(OC)cc4s3)CC2=O)cc1 (stereo not given) | inconclusive: 20 µM [quencher, side channel, single point] | 
CC1CCCCN1C(=O)Cn1cc(/C=C2/C(=O)Nc3ccccc32)c2ccccc21 (stereo not given) | inconclusive: 3.98 µM [quencher, side channel, full curve] | 
CCCCNC(=O)c1onc(CSc2cccc3ccccc23)c1C(=O)O | inconclusive: 17.8 µM [quencher, side channel, single point] | 
CCN(CC)CCCNC(=O)COc1ccc2oc3c(c2c1)CCCC3 | inactive | 
CCN(CC)c1ccc2cc(-c3nnc(-c4ccccc4)o3)c(=O)oc2c1 | inactive | 
NS(=O)(=O)c1ccc(NC(=O)/C=C/c2cccc(Cl)c2)cc1 | inconclusive: 15.8 µM [quencher, side channel, partial curve] | 
Cc1cc(-c2nc3ncccc3o2)ccc1NC(=S)NC(=O)c1ccco1 | inconclusive: 14.1 µM [inhibitor, partial curve] | 
CC1CN(C(=O)CCC(=O)N2CCCCC2)c2ccccc2O1 (stereo not given) | inconclusive: 15.8 µM [inhibitor, single point] | 
Cc1ccc(C)c(N(C(=O)Cn2nnc3ccccc32)C(C(=O)NC(C)(C)C)c2ccsc2)c1 (stereo not given) | inconclusive: 3.16 µM [inhibitor, single point] | 
CCC(=O)Nc1ccc(C(=O)NNC(=O)c2cccc(C)c2)cc1 | inconclusive: 6.31 µM [quencher, single point] | 
Nc1c(S(=O)(=O)c2ccccc2)c2nc3ccccc3nc2n1/N=C/c1cccc(O)c1 | inactive | 
CC(C)[C@H](N)C(=O)N1CCC(C(=O)N[C@@H](Cc2ccccc2)C(=O)NCc2ccc(F)cc2)CC1 | inconclusive: 31.6 µM [inhibitor, single point] | 
CC(NC(=S)Nc1ccc(OC(F)F)c(Cl)c1)C(C)(C)C (stereo not given) | inconclusive: 15.8 µM [quencher, side channel, partial curve] | 
CC(/C=N/n1c(-c2ccc(C)cc2)n[nH]c1=S)=C\c1ccco1 | inconclusive: 20 µM [quencher, side channel, single point] | 
N#CCc1nc(-c2cc3ccccc3oc2=O)cs1 | inconclusive: 10 µM [quencher, side channel, partial curve] | 
O=C(NCc1ccc(F)cc1)c1c2c(nc3ccccc13)CCC2 | inconclusive: 20 µM [quencher, side channel, partial curve] | 
